The subject of this data set is ATP. In words: switch fluorescence ratio, 500 uM ATP over buffer (Cy3 cluster intensity, sum of 5 cycles each) (fold (ratio)); higher = stronger signal-on switching upon ATP binding; sequences stand for … in TCGTCGGCAGCGTCAGATGTGTATAAGAGACAGTTTTTTTTTTTTTTTTTTTTTTTTT…TC. The note with it: aptamer strand: ATP DNA aptamer (quencher-CACCTGGGGGAGTATTGCGGAGGAAGG + anchor), 100 nM annealed; ATP concentration: 500 uM; one replicate. The essentials: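 Cy3-labelled switching-strand clusters on a modified Illumina MiSeq flow-cell were annealed to 100 nM quencher-labelled ATP aptamer and imaged first in selection buffer, then after 15 min with 500 uM ATP at 22 °C. NaOH stripping and re-annealing separated each of five buffer/ATP cycles, and clusters outside 100-1000 RFU were excluded. The fluorescence ratio sums target-cycle Cy3 intensity over buffer-cycle Cy3 intensity per cluster and averages it per switch-domain sequence.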

Sequences with one replicate were seen in a single cluster, so their values are uncertain.
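Further: ATP exposure 15 min at 22 °C before imaging.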

In the case of TCTGAGAACT, the switch fluorescence ratio stood at 0.994. Take CTACTATTGT: the switch fluorescence ratio turned out to be 0.979. With TATTTCCCAG, the switch fluorescence ratio came to 1.04. Consider GCATGGAGCC, for which the switch fluorescence ratio came to 1.05. Take ATTGAATCTC: the switch fluorescence ratio was 0.979. As to GACGACACAT, the switch fluorescence ratio was determined as 2.29. For the sequence GAAGTCCTCG, the switch fluorescence ratio turned out to be 1.02.

As to GACAGACCAT, the switch fluorescence ratio stood at 1.11. In the case of AACAGCTGGT, the switch fluorescence ratio was found to be 1.02. As to CAGCGCACTC, the switch fluorescence ratio was determined as 2.68. To AATTTGCCGG belongs 0.967; to CTGGGGCATG, 1. As to TGATCCCTCT, the switch fluorescence ratio was 1.01. As for CGGACGGTA, the switch fluorescence ratio was found to be 1.14. Regarding GTAATCGATG, the switch fluorescence ratio is 1.02. Under AGAGCCCGCA stands 1.07; under TCCTAAAAG, 1.1. For TTCGTTGCGA, the switch fluorescence ratio was determined as 1.03. On to CCCTTTTTTC, for which the switch fluorescence ratio was found to be 1.06. In the case of TCCCATATGA, the switch fluorescence ratio was found to be 1.01.

Take CGGGTACTAA: the switch fluorescence ratio is 1.03. For ATACCCGTTG, the switch fluorescence ratio was 1.05. In the case of GCTATGTTGA, the switch fluorescence ratio is 1. In the case of GACGCAGCGT, the switch fluorescence ratio came to 1.04.

Consider GAGTACCGCT, for which the switch fluorescence ratio worked out at 0.978. As to TTATATTGGC, the switch fluorescence ratio stood at 1.01.

On to CCCCCTTGAC, for which the switch fluorescence ratio worked out at 1.49. Under AACCCTTTCT stands 1.28; under TCATATTGG, 1.02; under AAGACTAGAT, 1.03. Turning to CTGAAATCTA, the switch fluorescence ratio worked out at 1.02. For the sequence GACTAGCCTA, the switch fluorescence ratio was 1. As to AAATCGTTAT, the switch fluorescence ratio was found to be 1.01. As to TGACAGATAA, the switch fluorescence ratio worked out at 1.03. As for TCTTCGGGGA, the switch fluorescence ratio turned out to be 0.999.

With CGCTCCTGGT, the switch fluorescence ratio is 1.01. Under AAAACTCGAG stands 1.06. Turning to TCCGGGTCGG, the switch fluorescence ratio is 0.997.

With AGTAGGAAAA, the switch fluorescence ratio came to 0.993.

As for AAGTGCTTTA, the switch fluorescence ratio is 1.02.

As for ACGGACCTTG, the switch fluorescence ratio was 1.01.

AATTTGGTAG: the switch fluorescence ratio was determined as 0.954. Take ATAGTCTCAG: the switch fluorescence ratio turned out to be 1.05. Regarding TAAACGATGT, the switch fluorescence ratio turned out to be 1.01. For the sequence GGTTGGATAG, the switch fluorescence ratio was determined as 0.973.

With GTATATTATT, the switch fluorescence ratio is 1.05. To GGACCCCGGT belongs 0.983. As for GCAATAGAGT, the switch fluorescence ratio is 1.13.

Take ACTGTTTCCC: the switch fluorescence ratio is 0.989. On to TTGCTCAGGA, for which the switch fluorescence ratio is 0.929. To GGTATAGCTG belongs 1.02; to TGGCCCAGGA, 1.23; to GTGGCTGAG, 0.99. In the case of CTCTTCCTAG, the switch fluorescence ratio worked out at 1.13. Consider GGAGTATCAG, for which the switch fluorescence ratio was determined as 0.952. As to CCGATAACG, the switch fluorescence ratio was 1.11. To TGGCGTAGTG belongs 1.02; to GAGCGCTCCT, 0.992. CCATCAGGAT: the switch fluorescence ratio stood at 1.02. On to CCTCTGGGCA, for which the switch fluorescence ratio came out at 1.99. Turning to GCCGGGCAG, the switch fluorescence ratio amounted to 1.

Consider AGGGTAAGAA, for which the switch fluorescence ratio was 1.1. With CTAAGTTCGG, the switch fluorescence ratio was 0.981. For TTCGCCGCTT, the switch fluorescence ratio turned out to be 1.06. TGCTTGTATA: the switch fluorescence ratio is 1.02.

For the sequence TTGTCAGCCG, the switch fluorescence ratio was 0.955. As to GAGGCATCTG, the switch fluorescence ratio came out at 0.989.

For the origin of these results see the supplement of paper PMC10126150.
